In all, about 81,000 sequences were measured (“one-hybrid fitness for binding NBS DNA”: median about -0.1, highest 2% from about 0.36 on). Some of the results follow.
B1: Caulobacter ParB omega fusion; a variant is named by its letters at X, in order, B8GW30 (parent)
chain: MESVVVGEPGMSEGRRGLGRGLSALLGEVDAAPAQAPGEQLGGSREAPIEILQRNPDQPRRTFREEDLEDLSNSIREKGVLQPILVRPSPDTAGEYQIVAGERAWRAAQRAGLKTVPIMVRELDDLAVLEIGIIENVQRADLNVLEEALSYKVLMEKFERTQENIAQTIGKSXSHVANXMRLLXLPDEVQSYLVSGELTAXHARAIAAAADPVALAKQIIEGGLSVRETEALARKAPNLSAGKSKGGRPPRVKDTDTQALESDLSSVLGLDVSIDHRGSTGTLTITYATLEQLDDLCNRLTRGI

Variants of: B1
Experiment: one-hybrid fitness for binding NBS DNA (the Noc-binding site; scaled: cognate 1, non-cognate 0); higher = stronger binding
Details: with NBS DNA site
How it was run: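 On M9-minus-histidine containing 0.1 mM IPTG and 5 mM 3-AT, E. coli USO cells with a HIS3 reporter, site 19 bp from the promoter, grew 48 hours at 37°C to select Caulobacter ParB libraries randomised at four specificity codons. Plasmids from before and after were Illumina-sequenced, with three replicate libraries pooled and variants under 10 reads left out. Fitness is the log change in variant-to-wild-type read ratio, rescaled against cognate and non-cognate.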

Variant | one-hybrid fitness for binding NBS DNA
GYLV | ≤ 0.2
STNC | ≤ 0.2
HTGF | ≤ 0.2
VFMS | ≤ 0.2
LYCC | ≤ 0.2
NDDS | ≤ 0.2
TEKT | ≤ 0.2
CMEW | ≤ 0.2
VKTS | ≤ 0.2
LDSW | ≤ 0.2
AKWR | ≤ 0.2
KRPH | ≤ 0.2
RDRI | ≤ 0.2
QKQW | ≤ 0.2
ISHL | ≤ 0.2
RVDS | ≤ 0.2
SFYR | ≤ 0.2
CVAV | ≤ 0.2
YAKD | ≤ 0.2
WDPS | ≤ 0.2
TVKR | 0.211
HKHG | ≤ 0.2
NVCL | ≤ 0.2
WCAR | ≤ 0.2
STGK | ≤ 0.2
NRML | ≤ 0.2

Variant | one-hybrid fitness for binding NBS DNA
AIIR | ≤ 0.2
FMPR | ≤ 0.2
QVKN | ≤ 0.2
LSWV | ≤ 0.2
QALY | ≤ 0.2
LPKR | ≤ 0.2
GVFG | ≤ 0.2
APVC | ≤ 0.2
HDMG | ≤ 0.2
WPGL | ≤ 0.2
LILC | ≤ 0.2
GSYG | ≤ 0.2
NYLT | ≤ 0.2
KMNS | ≤ 0.2
IYVA | ≤ 0.2
LAKA | ≤ 0.2
FVNR | ≤ 0.2
DPSY | ≤ 0.2
YCVC | ≤ 0.2
MPHF | ≤ 0.2
FITI | ≤ 0.2
HPEI | ≤ 0.2
QYVS | 0.231
EDQY | ≤ 0.2
VWLG | ≤ 0.2
IRIE | ≤ 0.2

Variant | one-hybrid fitness for binding NBS DNA
MTDI | ≤ 0.2
VVRT | ≤ 0.2
TVFC | ≤ 0.2
STYK | ≤ 0.2
KGPC | ≤ 0.2
MAAF | ≤ 0.2
EYNG | ≤ 0.2
QNFS | ≤ 0.2
ETLI | ≤ 0.2
HEWG | ≤ 0.2
TGDY | ≤ 0.2
YVST | ≤ 0.2
RFAE | ≤ 0.2
PVYW | ≤ 0.2
RYER | 0.215
SCDA | ≤ 0.2
QMMR | 0.523
LKPG | ≤ 0.2
HELY | 0.201
KQAV | ≤ 0.2
TTKL | ≤ 0.2
QSVI | ≤ 0.2
LIPV | ≤ 0.2
DNHP | ≤ 0.2
TRGP | ≤ 0.2
VRCK | ≤ 0.2

Variant | one-hybrid fitness for binding NBS DNA
FWPP | ≤ 0.2
GPKM | ≤ 0.2
AKSS | ≤ 0.2
GETG | ≤ 0.2
YQFT | ≤ 0.2
GRGI | ≤ 0.2
QTLE | ≤ 0.2
NHHY | ≤ 0.2
ERRN | ≤ 0.2
YHSG | ≤ 0.2
FYFT | ≤ 0.2
LKAG | ≤ 0.2
DIIL | ≤ 0.2
YQNH | ≤ 0.2
YYKW | ≤ 0.2
IEPN | ≤ 0.2
VSSL | ≤ 0.2
HSSW | ≤ 0.2
RQYI | ≤ 0.2
LMVR | ≤ 0.2
DCYC | ≤ 0.2
RPRL | ≤ 0.2
HYAV | ≤ 0.2
DMLS | ≤ 0.2
AQQK | ≤ 0.2
PEQV | ≤ 0.2

Variant | one-hybrid fitness for binding NBS DNA
NCEW | ≤ 0.2
GKNA | ≤ 0.2
QCYV | ≤ 0.2
WISS | ≤ 0.2
YRPV | ≤ 0.2
YGYG | ≤ 0.2
NEVW | ≤ 0.2
FGHR | ≤ 0.2
RLPN | ≤ 0.2
KRVH | ≤ 0.2
REGF | ≤ 0.2
SHQL | ≤ 0.2
LHKA | ≤ 0.2
QKRT | 0.757
WHTC | ≤ 0.2
YVAS | ≤ 0.2
RKLS | 0.496
QGCS | ≤ 0.2
LYVY | ≤ 0.2
NHVT | ≤ 0.2
WCLG | ≤ 0.2
KVMW | ≤ 0.2
AQFK | ≤ 0.2
QLNQ | ≤ 0.2
QCSD | ≤ 0.2
MLKV | ≤ 0.2

Variant | one-hybrid fitness for binding NBS DNA
TAQG | ≤ 0.2
YDSI | ≤ 0.2
ADPD | ≤ 0.2
TTNQ | ≤ 0.2
CRTM | ≤ 0.2
HIDR | ≤ 0.2
AAST | ≤ 0.2
PFAK | ≤ 0.2
KWKT | ≤ 0.2
MRPC | ≤ 0.2
IMHR | ≤ 0.2
GDLG | ≤ 0.2
WPLL | ≤ 0.2
EKFF | ≤ 0.2
SEHY | ≤ 0.2
IIAL | ≤ 0.2
YWVC | ≤ 0.2
QNMR | ≤ 0.2
GHKV | ≤ 0.2
GARV | ≤ 0.2
NHLR | ≤ 0.2
YIWV | ≤ 0.2
FPYG | ≤ 0.2

Source: a collection of fitness landscapes (doi:10.1016/j.celrep.2020.107928)
